Source: a collection of fitness landscapes (doi:10.1126/science.1257360)
The other results are listed elsewhere or left out.

B1: PhoQ; a variant is named by its letters at X, in order, P23837 (parent)
chain: MKKLLRLFFPLSLRVRFLLATAAVVLVLSLAYGMVALIGYSVSFDKTTFRLLRGESNLFYTLAKWENNKLHVELPENIDKQSPTMTLIYDENGQLLWAQRDVPWLMKMIQPDWLKSNGFHEIEADVNDTSLLLSGDHSIQQQLQEVREDDDDAEMTHSVAVNVYPATSRMPKLTIVVVDTIPVELKSSYMVWSWFIYVLSANLLLVIPLLWVAAWWSLRPIEALAKEVRELEEHNRELLNPATTRELTSLVRNLNRLLKSERERYDKYRTTLTDLTHSLKTPLXXLQXXLRSLRSEKMSVSDAEPVMLEQISRISQQIGYYLHRASMRGGTLLSRELHPVAPLLDNLTSALNKVYQRKGVNISLDISPEISFVGEQNDFVEVMGNVLDNACKYCLEFVEISARQTDEHLYIVVEDDGPGIPLSKREVIFDRGQRVDTLRPGQGVGLAVAREITEQYEGKIVAGESMLGGARMEVIFGRQHSAPKDE

Variants of: B1
Experiment: enrichment ratio after two sorts for PhoP signalling (ratio (wild type AVST 3.29)); higher = more functional
Details: with PhoP (E. coli)

Variant | enrichment ratio
RFQE | ≤ 0.25
FDTY | ≤ 0.25
PMMH | ≤ 0.25
VFGR | ≤ 0.25
NKLW | ≤ 0.25
PTGF | ≤ 0.25
LSIG | ≤ 0.25
PHMY | ≤ 0.25
FYTE | ≤ 0.25
PRCT | ≤ 0.25
KDYV | ≤ 0.25
IYKK | ≤ 0.25
EYNF | ≤ 0.25
YSWI | ≤ 0.25
QDRW | ≤ 0.25
FDEY | ≤ 0.25
YDDL | ≤ 0.25
FMHP | ≤ 0.25
TLHM | ≤ 0.25
LWWC | ≤ 0.25
KSGW | ≤ 0.25
THPA | ≤ 0.25
HPMG | ≤ 0.25
GMKY | ≤ 0.25
GWQT | ≤ 0.25
SSEE | ≤ 0.25

Variant | enrichment ratio
NTLW | ≤ 0.25
MLVE | ≤ 0.25
DVET | ≤ 0.25
VKRL | ≤ 0.25
QPKK | ≤ 0.25
TAPT | ≤ 0.25
PFML | ≤ 0.25
IQQV | ≤ 0.25
HFVH | ≤ 0.25
AGCT | 5.91
YTRL | ≤ 0.25
FHNP | ≤ 0.25
LLHD | ≤ 0.25
YFNQ | ≤ 0.25
AVYK | ≤ 0.25
EHAQ | ≤ 0.25
MPGQ | ≤ 0.25
MIHP | ≤ 0.25
YDKQ | ≤ 0.25
FPWK | ≤ 0.25
GVFF | ≤ 0.25
QGLS | 3.82
DWVH | ≤ 0.25
WEVG | ≤ 0.25
FRYC | ≤ 0.25
DYCS | ≤ 0.25

Variant | enrichment ratio
KKAR | ≤ 0.25
VCQY | ≤ 0.25
YFMC | ≤ 0.25
WFWH | ≤ 0.25
VHFG | ≤ 0.25
YVNF | ≤ 0.25
MYIG | ≤ 0.25
FLTL | 0.273
YPKW | ≤ 0.25
EYCV | ≤ 0.25
HLVC | ≤ 0.25
VITP | ≤ 0.25
AVTK | 17.9
NCAQ | ≤ 0.25
LASC | ≤ 0.25
RECT | ≤ 0.25
VKHE | ≤ 0.25
SNDS | ≤ 0.25
RHNA | ≤ 0.25
EVNT | ≤ 0.25
HFYC | ≤ 0.25
WPLY | ≤ 0.25
KQTH | ≤ 0.25
SKPF | ≤ 0.25
ACVP | ≤ 0.25
EYMF | ≤ 0.25

Variant | enrichment ratio
FLIK | ≤ 0.25
VVMQ | 13.3
EVRI | ≤ 0.25
VCTP | ≤ 0.25
RARW | ≤ 0.25
LMTN | ≤ 0.25
SDLE | ≤ 0.25
RRLM | 0.277
FKFF | ≤ 0.25
WKIE | ≤ 0.25
GLCV | 7.06
FMIL | ≤ 0.25
FFPC | ≤ 0.25
PALQ | ≤ 0.25
SKGC | ≤ 0.25
FTFE | ≤ 0.25
NNTQ | ≤ 0.25
NVHK | ≤ 0.25
HGPN | ≤ 0.25
GIVD | ≤ 0.25
PNLK | ≤ 0.25
APGR | ≤ 0.25
HIFM | ≤ 0.25
HGRS | ≤ 0.25
DWIY | ≤ 0.25
NWFI | ≤ 0.25

Variant | enrichment ratio
KPEV | ≤ 0.25
MYQG | ≤ 0.25
VWMA | ≤ 0.25
QKNP | ≤ 0.25
TQFF | 7.62
HYAW | ≤ 0.25
HCKW | ≤ 0.25
APPK | ≤ 0.25
VPLM | ≤ 0.25
IRQP | ≤ 0.25
PHWG | ≤ 0.25
YATY | ≤ 0.25
FYGH | ≤ 0.25
RHTW | ≤ 0.25
AALW | ≤ 0.25
RWWP | ≤ 0.25
ICHK | ≤ 0.25
WDRS | ≤ 0.25
NGCE | ≤ 0.25
YWTE | ≤ 0.25
PWEC | ≤ 0.25
EHAE | ≤ 0.25
MALW | ≤ 0.25
SWRD | ≤ 0.25
HYRE | ≤ 0.25
SDDP | ≤ 0.25

Variant | enrichment ratio
TWQL | ≤ 0.25
IADW | ≤ 0.25
VPFS | ≤ 0.25
WFPW | ≤ 0.25
MIWQ | 24.2
HCYG | ≤ 0.25
MTSA | ≤ 0.25
LTDF | ≤ 0.25
AEQL | 10.6
SSPQ | ≤ 0.25
NCKT | ≤ 0.25
LKWP | ≤ 0.25
GYPE | ≤ 0.25
ERWR | ≤ 0.25
VWYN | ≤ 0.25
PHHF | ≤ 0.25
PEHT | ≤ 0.25
IVSF | ≤ 0.25
EFTP | ≤ 0.25
RINM | ≤ 0.25
EGRD | ≤ 0.25
PSME | ≤ 0.25
FLVL | ≤ 0.25
